The campaign covered roughly 46,000 compounds. About 60 (0.1%) were called active. Not shown: some 3% with an inconclusive outcome. Calls follow the shape of the dose curve; as a rule, active = well fitted inhibition curve with a large enough effect; inconclusive = small, poorly fitted or top-dose-only effect; inactive = no such curve, though single readings can be large or run the other way. The list shows a part of the results.
experiment: Primary qHTS assay for Inhibitors of ovarian cancer metastasis using an organotypic tumor microenvironment (TME) model.; also: nearly all actives have a fitted effect of over 65% in size;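 as to activity change, negative = inhibition: plate controls were DMSO wells for no effect and tomatine positive control wells for full effect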; conditions: SKOV3ip1-GFP adhesion/invasion on 3D omental model, fluorescence; series mostly up to 45.8 µM; activity change, negative = inhibition: at the top concentration
Outline: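 qHTS, 4-pt dose (0.36-46 umol/L); SKOV3ip1-GFP, 1,200 cells/well, no FBS; primary omental fibroblast/mesothelial co-culture 48 h pre-grown; 2 h RT + 16 h 37 C; PBS wash, 4% PFA; GFP count 488/509 nm.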

Activity change, negative = inhibition, inactive:
CCc1ccc(-c2cc(C)no2)cc1S(=O)(=O)Nc1ccc(Cl)cn1 9.05%
Nc1c(C(=O)NCc2ccc3c(c2)OCO3)nnn1CC(=O)Nc1ccc(Br)cc1 0.919%
Cc1cccc(C)c1OCC(=O)N1CCC(c2nc3ccccc3o2)CC1 -1.22%
Cc1cc(NC(=O)C2CCC(CNS(=O)(=O)c3ccc(Br)s3)CC2)ccc1Br (stereo unspecified) -2.73%
N=c1nc(N2CCCCC2)cc(N)n1O 3.08%
Cc1cccc(N2CCN(C(=O)C3CCN(Cc4nc(-c5ccc(Cl)cc5)oc4C)CC3)CC2)c1C 0.716%
COc1cc(OC)c(NC(=O)c2cc3c(s2)-c2ccc(Cl)cc2SC3)cc1Cl -10.3%
Cn1c(C(=O)NCc2ccc(F)cc2)cc2cc(S(=O)(=O)N3CCCCC3)ccc21 -10.7%
COc1ccc(NC(=O)CSc2nc(-c3ccc(OC)cc3)cc(=O)[nH]2)cc1 3.45%
CCOC(=O)c1cc(S(=O)(=O)Nc2ccc(OC(F)(F)F)cc2)[nH]n1 -3.22%
COc1ccccc1NC(=O)c1oc2ccccc2c1NC(=O)c1ccc(S(=O)(=O)N(C)C)cc1 1.51%
Cc1ccc(-n2nc(C(=O)NCCc3cccc(C)c3)c3c4ccccc4n(C)c3c2=O)cc1 1.81%
COc1cc(-c2nc3n(n2)C(c2ccc(F)cc2)C(C(N)=O)=C(C)N3)cc(OC)c1OC (stereo unspecified) -8.93%
COc1ccc(OC)c(CNC(=O)c2cc(-c3ccc(Cl)s3)nc3ccccc23)c1 -0.94%
Cc1cccn2c(Nc3ccc4c(c3)OCCO4)c(-c3ccc(Br)o3)nc12 -4.25%
COc1ccc(-c2cc3ccc(O)c(CN4CCN(CCO)CC4)c3oc2=O)cc1OC 18.8%
CCN(C(=O)Cn1c(SCC(=O)NCc2ccccc2)nc2ccccc21)c1cccc(C)c1 11.1%
O=C(NCc1ccccc1Cl)c1cnc(N2CCCCC2)c2ccccc12 -22%
Cc1ccc(N2C(=O)c3oc4cc(C)c(C)cc4c(=O)c3C2c2cccc(O)c2)nc1 (stereo unspecified) -4.25%
CCCN(CCC)C(=O)c1c[nH]c2ccc(S(=O)(=O)Nc3cc(C)cc(C)c3)cc2c1=O 0.821%
Cc1ccc(CNC(=O)c2cc(C3CC3)nc3c2c(C)nn3-c2cccc(Cl)c2C)cc1 0.779%

outcome, inactive:
Cc1ccc(Cn2cc(C(=O)c3ccc(C)cc3)c(=O)c3ccc(C)nc32)cc1
Cc1cc(SCC(=O)Nc2ccc(Cl)cc2)nc2ccccc12
COc1ccc(NC(=O)CN(C)S(=O)(=O)c2ccc(C(=O)N3CCOCC3)s2)cc1
CCc1nn2c(-c3ccco3)ccnc2c1-c1ccccc1
CCC1CN(C(=O)N2CCC(C(=O)NCc3cc(OC)ccc3OC)CC2)c2ccccc2O1 (stereo unspecified)

Source: PubChem BioAssay AID1963576 (National Center for Advancing Translational Sciences (NCATS), 2024)
